Reference: the RNAGym collection of RNA variant scans (doi:10.7554/elife.90254)
The source gives no read counts; variants with many changes may rest on few reads.

B1: LINE1-mini (parent)
chain: GGCAGAGCUCAACACAGCGUGGCAAAGUGGCUGUGGCUAGACUGCC

Variants of: B1
Experiment: self-cleavage, relative activity (ratio to wild type); higher = more cleavage; in vitro, sequencing; the parent is a self-cleaving ribozyme
For C13U C15A G22A U28C G36A A41U, the self-cleavage was 0.12.
C13G A24G G30A gave a self-cleavage of 0.04.
C13G G19U G22U U28A gave a self-cleavage of 0.07.
Work on C13U G17A A24G U28A U34A yielded a self-cleavage of 0.05.
Variant C13G C15U A16U G21U C45U has a self-cleavage of 0.09.
With C13U C18A G30C C31G the self-cleavage was 0.02.
Work on C13U C18A A26C A41C yielded a self-cleavage of 0.01.
C13G A14G C37G showed a self-cleavage of 0.
With C13G A26G C42A the self-cleavage was 0.62.
Variant C13G A14U G17A A25G has a self-cleavage of 0.17.
C13G G40U U43G showed a self-cleavage of 0.02.
Variant C13G C15G G21U G35C G36C has a self-cleavage of 0.01.
With C13G G22U G29A the self-cleavage was 0.32.
C13G G19C G22U gave a self-cleavage of 0.18.
Variant C13U A26G G40U has a self-cleavage of 0.13.
Work on C13G G22A G36U yielded a self-cleavage of 0.07.
Variant C13G G30A A41U G44U has a self-cleavage of 0.02.
Work on C13U A14C G30U G44C yielded a self-cleavage of 0.08.
C13U G22A U38G gave a self-cleavage of 0.01.
In the case of C13G G21U A25G U32A G33C U38A G40A, the self-cleavage is reported as 0.08.
C13G C23G U43A showed a self-cleavage of 0.15.
Work on C13U G17A C31A G33C yielded a self-cleavage of 0.02.
C13G U32C C45A showed a self-cleavage of 0.01.
Variant C13G C37U A41G has a self-cleavage of 0.03.
With C13G G22U A25G the self-cleavage was 0.04.
Variant C13G A14U U20G C37U C45U has a self-cleavage of 0.03.
With C13G U43G C46U the self-cleavage was 0.04.
With C13G G22C U43C the self-cleavage was 0.01.
With C13U G17A C18G U32C the self-cleavage was 0.08.
In the case of C13U C18A A39U G44C, the self-cleavage is reported as 0.02.
For C13U A16C C18A, the self-cleavage was 0.1.
Work on C13U A14U U32A C37U yielded a self-cleavage of 0.09.
C13U G17C C23U showed a self-cleavage of 0.12.
C13U A16U G19A G33U U43C gave a self-cleavage of 0.07.
For C13G C18G G35U C42A, the self-cleavage was 0.02.
With C13G G17C G21A the self-cleavage was 0.02.
C13G C18A G36A C42U gave a self-cleavage of 0.02.
For C13U C18A C45U, the self-cleavage was 0.02.
For C13U G19U U20C G21A G30U, the self-cleavage was 0.05.
With C13U C23G G40A G44C C45U the self-cleavage was 0.04.
With C13G G27U U28G C31A the self-cleavage was 0.15.
Variant C13U A16C C31A G33C A41U has a self-cleavage of 0.05.
Variant C13U A16C C31U A41G has a self-cleavage of 0.03.
In the case of C13G G22A G27A C31G U32G, the self-cleavage is reported as 0.04.
C13U C23U G27U C31G gave a self-cleavage of 0.04.
Variant C13G C23A A39U G40U has a self-cleavage of 0.11.
C13U A25U C46A gave a self-cleavage of 0.27.
Work on C13G A14U A24C yielded a self-cleavage of 0.24.
C13U A26C U34A A39G showed a self-cleavage of 0.07.
C13G G17U A41U G44A gave a self-cleavage of 0.08.
For C13G G44U C46U, the self-cleavage was 0.06.
In the case of C13G G21C G40A, the self-cleavage is reported as 0.05.
In the case of C13U A25C C31A U34G G35A, the self-cleavage is reported as 0.08.
Work on C13U C18G C31U C42G yielded a self-cleavage of 0.02.
C13U A16G A25G gave a self-cleavage of 0.02.
With C13G G27U G30C U43C G44C the self-cleavage was 0.01.
In the case of C13U C18U G19U U28A, the self-cleavage is reported as 0.08.
C13U G17U A25G G29C showed a self-cleavage of 0.13.
C13G U38C C46U showed a self-cleavage of 0.01.
Work on C13G G17A C45U yielded a self-cleavage of 0.09.
With C13U G17U U28A the self-cleavage was 0.14.
With C13G A24G C31G G40U A41C the self-cleavage was 0.
For C13U A14G C15G A16U C31U G36C C42A, the self-cleavage was 0.02.
C13U A16G G33U G36A C37A C45A gave a self-cleavage of 0.02.
For C13U G17A G40U C42A, the self-cleavage was 0.11.
C13G G17A G19U G21A G40U showed a self-cleavage of 0.01.
Work on C13G G29U C31A yielded a self-cleavage of 0.04.
C13G C15A U32C showed a self-cleavage of 0.44.
C13G A26C A41U gave a self-cleavage of 0.22.
Variant C13G A24U G35U U43A has a self-cleavage of 0.05.
Variant C13U C15G G22C has a self-cleavage of 0.03.
Variant C13G U20G A25G has a self-cleavage of 0.15.
For C13U G19U U32A U34G, the self-cleavage was 0.03.
With C13G G22C A24U G40A C45A the self-cleavage was 0.
Variant C13U A14G G27A U34A A39C has a self-cleavage of 0.06.
With C13U C18G C23U C37U C46G the self-cleavage was 0.02.
For C13U A14C G21A G44A, the self-cleavage was 0.05.
Work on C13G G17C C31U U34C C42U yielded a self-cleavage of 0.02.
C13U G21A C45A showed a self-cleavage of 0.37.
In the case of C13U G19C C46A, the self-cleavage is reported as 0.03.
Work on C13G A14C G40U U43G yielded a self-cleavage of 0.01.
Variant C13U C18A A41G has a self-cleavage of 0.29.
With C13G G29U G33C U43G the self-cleavage was 0.
For C13G G27A G44U, the self-cleavage was 0.08.
